# Data: PubChem BioAssay AID588795 (National Center for Advancing Translational Sciences (NCATS), 2011)
# Screen size: about 390,000 compounds; about 1,400 (0.36%) were called active. Inconclusive results, whose numbers are uncertain, are shown with a selection of clear calls. Calls come from the whole dose curve; as a rule, active = well fitted inhibition curve with a large enough effect; inconclusive = small, poorly fitted or top-dose-only effect; inactive = no such curve, though single readings can be large or run the other way. A potency beside an inconclusive call is a rough fit, not a confirmed value.
# Molecular target: Flap endonuclease 1 (Homo sapiens) (UniProt P39748)
# Sequence of UniProt P39748 (P39748 whole entry, looked up): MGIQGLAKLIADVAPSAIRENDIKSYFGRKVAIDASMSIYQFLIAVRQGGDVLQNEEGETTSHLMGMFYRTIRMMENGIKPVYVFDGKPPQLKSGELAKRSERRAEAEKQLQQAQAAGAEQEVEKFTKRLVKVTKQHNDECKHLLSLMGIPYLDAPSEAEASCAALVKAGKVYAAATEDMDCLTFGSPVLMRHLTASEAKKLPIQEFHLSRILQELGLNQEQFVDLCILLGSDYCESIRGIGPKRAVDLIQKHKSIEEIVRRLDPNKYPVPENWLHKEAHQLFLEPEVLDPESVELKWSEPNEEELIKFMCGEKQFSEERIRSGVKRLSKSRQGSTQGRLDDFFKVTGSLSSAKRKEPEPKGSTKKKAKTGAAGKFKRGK
# Test: qHTS Assay for the Inhibitors of Human Flap endonuclease 1 (FEN1). Note: nearly all actives have a fitted effect of over 65% in size.
# Settings: Recombinant FEN1 flap cleavage, fluorescence, 15 min; series mostly up to 114 µM; activity change, negative = inhibition: at the top concentration
# In short: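 Potency values derive from four-parameter Hill fits of normalized qHTS data. The reaction used 10 nM FEN1 preincubated 15 min at room temperature with compound, then 50 nM DNA substrate, read at 0 and 15 min.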
# % is set by controls: 0 for no effect and ±100 for the full control effect; potency is the fitted concentration of half-maximal effect; tags give direction and shape of the fitted curve.
Compound,"activity change, negative = inhibition",Potency
COC(=O)c1cc(NC(=O)c2ccc(OC)cc2)c(=O)oc1C,inactive: -7.65%,
Nc1c(SCCC(=O)O)ccc2c1C(=O)c1ccccc1C2=O,,"inconclusive: 50.1 µM [inhibitor, partial curve, poor fit]"
CC(C)(C)c1ccc(-c2cc(-c3ccccc3O)[nH]n2)cc1,,"inconclusive: 56.2 µM [inhibitor, partial curve, poor fit]"
OCCSc1nc(-c2cccnc2)nc2ccccc12,,"inconclusive: 50.1 µM [inhibitor, partial curve, poor fit]"
COc1cc2oc(-c3ccc(O)cc3)cc(=O)c2c(OC)c1O,,"inconclusive: 28.2 µM [inhibitor, full curve]"
CN(C)c1ccc(/C=C/C=C2/C=Cc3ccccc32)cc1,inactive: -5.11%,
COc1ccc(OC)c(N(CC(=O)NCc2ccccc2)S(=O)(=O)c2ccccc2)c1,,"inconclusive: 89.1 µM [inhibitor, single point]"
CSc1ccc(S(=O)(=O)Nc2ccc(N3CCOCC3)c(Cl)c2)cc1,,"inconclusive: 89.1 µM [inhibitor, partial curve, poor fit]"
Nc1ccc(C(=O)OCCc2ccccc2)cc1,inactive: -14.3%,
COc1ccc2sc(-c3ccccc3OC)c(C#CCCO)c2c1,,"inconclusive: 20 µM [inhibitor, partial curve, poor fit]"
Cc1ccc(NC(=O)COc2ccc(/C=N\NC(=O)c3cccnc3)cc2)cc1C,,"inconclusive: 50.1 µM [inhibitor, partial curve]"
Cc1csc(NC(=O)CSCC(=O)O)c1-c1nc2ccccc2s1,,"inconclusive: 11.2 µM [inhibitor, full curve, poor fit]"
Cc1ccc(S(=O)(=O)c2nnn3c2nc(NCc2ccc(F)cc2)c2sccc23)cc1,,"inconclusive: 89.1 µM [inhibitor, single point]"
Oc1c(I)cc(I)c2cccnc12,,"inconclusive: 35.5 µM [inhibitor, partial curve, poor fit]"
Cc1cc2c(cc1C)N[C@]1(C[C@H]3CCCC(=O)N4CC[C@@H](C1)[C@@H]34)C(=NC(C)(C)CC(C)(C)C)N2,,"inconclusive: 79.4 µM [inhibitor, partial curve, poor fit]"
COc1ccc2cc(C(=O)Nc3ccc(O)cc3)sc(=O)c2c1OC,,"inconclusive: 89.1 µM [inhibitor, single point]"
O=C1C(=Cc2ccco2)CCCC1=Cc1ccco1,,"inconclusive: 79.4 µM [inhibitor, partial curve, poor fit]"
COc1ccc(-c2ccc(=O)n(Cc3cccc([N+](=O)[O-])c3)n2)cc1,,"inconclusive: 25.1 µM [inhibitor, partial curve, poor fit]"
